The campaign covered roughly 410,000 compounds. About 530 (0.13%) were called active. The shares of active, inactive and inconclusive entries below differ from those in the screen. The call rests on the fitted dose curve; in most records, active means well fitted inhibition curve with a large enough effect; inconclusive means small, poorly fitted or top-dose-only effect, or another doubt; inactive means no such curve, though single readings can be large or run the other way. A potency beside an inconclusive call is a rough fit, not a confirmed value.
Experiment: qHTS of GLP-1 Receptor Inverse Agonists: Cytotox Screen
Conditions: HEK293 cAMP-luciferase reporter cells, luminescence, 24 h; series mostly up to 38.3 µM
Method in brief: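 Cells in DMEM/10% Nu serum/1% pen-strep, 1536-well format. Pre-incubated 12 h, dosed with 23 nL compound, incubated a further 24 h. Luciferase detection, 12 min at room temp, luminescence.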
Potency means the concentration at half of the fitted maximal effect.

For CCOC(=O)c1cc(NC(=O)c2cccnc2)cc(C(=O)OCC)c1, which Potency is on record?
The Potency was inconclusive: 28.2 µM [inhibitor, single point].

For CCOc1ccccc1N1CCN(C(=O)CN2C(=O)NC3(CCCC3)C2=O)CC1, which Potency is on record?
Its Potency is “inactive”.

Which Potency does the source give for COc1ccc(SC[C@H](Cc2ccccc2)N2CCN(C)CCC2=O)cc1 here?
Its Potency is inconclusive: 5.01 µM [inhibitor, full curve].

Which Potency does the source give for Cc1ccc(S(=O)(=O)/N=C2/NC(=O)/C(=C/c3cc([N+](=O)[O-])ccc3O)S2)cc1 here?
Its Potency is “inactive”.

With CCCCc1ccc(NC(=O)COc2cccc3c(=O)n(C)ccc23)cc1 as the molecule, how does the Potency read?
The Potency was “inactive”.

With CC1CN(C(=S)NC(=O)c2ccc(Cl)cc2)CC(C)O1 (stereo unspecified) as the molecule, how does the Potency read?
Its Potency is inconclusive: 3.55 µM [inhibitor, full curve, poor fit].

For COc1ccc(CC(N)c2csc(NC(=O)C(c3ccccc3)c3ccccc3)n2)cc1 (stereo unspecified), which Potency is on record?
The Potency was inconclusive: 28.2 µM [inhibitor, single point].

For O=C1[C@H]2[C@@H](c3ccc(C(F)(F)F)cc3)N[C@]3(CCCN(Cc4ccccc4)C3=O)[C@H]2C(=O)N1Cc1ccccc1, which Potency is on record?
Its Potency is “inactive”.

For COc1ccc(-c2cc(C(F)(F)F)nc(SCC(=O)NCCc3ccc(OC)c(OC)c3)n2)cc1, which Potency is on record?
The Potency was “inactive”.

With N=c1c2c(-c3ccccc3)c(-c3ccccc3)n(Cc3ccco3)c2ncn1Cc1ccco1 as the molecule, how does the Potency read?
Its Potency is inconclusive: 12.6 µM [inhibitor, partial curve].

With Cc1ccc(C(CC(=O)Nc2cc(C)cc(C)c2)N2Cc3ccccc3C2=O)cc1 (stereo unspecified) as the molecule, how does the Potency read?
Its Potency is “inactive”.

With COc1cc(C(=O)NCC(=O)NCCN2C(=O)S/C(=C\c3ccccc3Cl)C2=O)cc(OC)c1OC as the molecule, how does the Potency read?
Its Potency is “inactive”.

Which Potency does the source give for Cc1cc(/C=C\c2ccc3cc(N(C)C)ccc3[n+]2C)c(C)n1-c1ccccc1 here?
Its Potency is inconclusive: 3.98 µM [inhibitor, full curve].

For O=C(c1ccco1)N1CCN(CCCCOc2cccc3ccccc23)CC1, which Potency is on record?
The Potency was inconclusive: 2.82 µM [inhibitor, partial curve, poor fit].

Which Potency does the source give for CN(C)c1ccc(N=Nc2ccccc2Br)cc1 here?
The Potency was inconclusive: 5.62 µM [inhibitor, partial curve, poor fit].

With Oc1cccc(C2c3[nH]c4ccccc4c3CCN2Cc2ccc3c(c2)CCO3)c1 (stereo unspecified) as the molecule, how does the Potency read?
Its Potency is inconclusive: 22.4 µM [inhibitor, single point].

Which Potency does the source give for COc1cccc2sc(Nc3nnc(-c4cccs4)o3)nc12 here?
Its Potency is “inactive”.

With CCCC(=O)N1CCN(c2nc3ccc(CC)cc3s2)CC1 as the molecule, how does the Potency read?
The Potency was inconclusive: 2.51 µM [inhibitor, full curve, poor fit].

Which Potency does the source give for Cn1c(CCN2CCCCC2)nc2cc(NS(=O)(=O)c3ccc(Cl)cc3)ccc21 here?
Its Potency is “inactive”.

Which Potency does the source give for COc1cc(/C=C2/SC(=Nc3ccc(O)cc3)NC2=O)ccc1O here?
Its Potency is inconclusive: 7.08 µM [inhibitor, partial curve, poor fit].

Which Potency does the source give for Cn1c(N/N=C/c2c[nH]c3ccccc23)nc2ccccc21 here?
Its Potency is inconclusive: 5.62 µM [inhibitor, full curve, poor fit].

Which Potency does the source give for CCOC(=O)C1(Cc2ccccc2)CCN(Cc2cccn2-c2nccs2)CC1 here?
Its Potency is inconclusive: 12.6 µM [inhibitor, single point].

Which Potency does the source give for COc1ccc(C(=O)NC2CCCc3ccccc32)cc1Br (stereo unspecified) here?
Its Potency is “inactive”.

Which Potency does the source give for CC(C)N(Cc1nc(-c2ccc(Cl)cc2)no1)C(=O)C12CC3CC(CC(C3)C1)C2 here?
The Potency was “inactive”.

For CCNC(=S)N/N=C(\C)c1cccc(OC)c1, which Potency is on record?
Its Potency is “inactive”.

Which Potency does the source give for O=C(C(=Cc1ccccc1)CN1CCCCC1)c1ccccc1 here?
The Potency was inconclusive: 14.1 µM [inhibitor, partial curve, poor fit].

With O=C(Nc1ccccc1Oc1cccnc1)C1CCCN(Cc2cccc(Cl)c2)C1 (stereo unspecified) as the molecule, how does the Potency read?
Its Potency is inconclusive: 0.631 µM [inhibitor, full curve, poor fit].

Which Potency does the source give for O=C(Nc1cccc(Cl)c1)c1cc(F)cc2c1OCOC2 here?
Its Potency is inconclusive: 12.6 µM [inhibitor, single point].

Which Potency does the source give for CCOc1ccc(S(=O)(=O)NCCC(=O)NCC(c2ccc(OC)cc2)N2CCCC2)cc1 (stereo unspecified) here?
Its Potency is inconclusive: 31.6 µM [inhibitor, single point].

For O=C(CCOc1ccccc1)N1CCN(S(=O)(=O)c2ccccc2F)CC1, which Potency is on record?
The Potency was inconclusive: 28.2 µM [inhibitor, single point].

For COc1cc(N2C(=O)C=CC2=O)ccc1N1C(=O)C=CC1=O, which Potency is on record?
Its Potency is inconclusive: 11.2 µM [inhibitor, partial curve, poor fit].

For CCC(CC)C(=O)N(C)c1c(C)nc2c(OCc3ccc(C(F)(F)F)cc3)cccn12, which Potency is on record?
The Potency was “inactive”.

With O=C(CC(c1ccccc1)c1cc(Br)ccc1O)NCC1(c2ccccc2)CCCC1 (stereo unspecified) as the molecule, how does the Potency read?
Its Potency is inconclusive: 28.2 µM [inhibitor, single point].

For N/C(Cc1ccc(Cl)cc1Cl)=N\OC(=O)c1cccs1, which Potency is on record?
Its Potency is inconclusive: 20 µM [inhibitor, single point].

For COc1ccc(-c2[nH]ncc2CN2CCC(c3ccncc3)CC2)cc1F, which Potency is on record?
Its Potency is inconclusive: 2 µM [inhibitor, partial curve, poor fit].

With CCCCn1c(/C=C/c2ccco2)nc2ccccc21 as the molecule, how does the Potency read?
Its Potency is “inactive”.

With COc1cc(OC)c(-c2c3cc(O)c(=O)cc-3oc3cc(O)c(O)cc23)cc1OC as the molecule, how does the Potency read?
The Potency was inconclusive: 14.1 µM [inhibitor, partial curve, poor fit].

For CC(C)C[C@H]1CN=C(N(C)C)N1CCc1cccc(F)c1, which Potency is on record?
The Potency was inconclusive: 10 µM [inhibitor, single point].

For CCCC[n+]1ccn(-c2nc3ccccc3nc2[N-]S(=O)(=O)c2ccc(Br)cc2)c1, which Potency is on record?
Its Potency is inconclusive: 28.2 µM [inhibitor, single point].

For Cn1nnnc1N=N/C(=N/Nc1ccccc1)c1ccccc1, which Potency is on record?
Its Potency is inconclusive: 1.12 µM [inhibitor, full curve, poor fit].

Which Potency does the source give for O=C(NCCCc1ccccc1)C1CCC(=O)N(Cc2ccc(Cl)cc2)C1 (stereo unspecified) here?
Its Potency is inconclusive: 28.2 µM [inhibitor, single point].

Which Potency does the source give for C[C@@H]1CN([C@H](C)CO)C(=O)Cc2cc(NC(=O)CCC(F)(F)F)ccc2O[C@@H]1CN(C)S(=O)(=O)c1ccccc1 here?
The Potency was “inactive”.

For CC(=O)Oc1c(Br)cc(N(C(C)=O)S(=O)(=O)c2ccccc2)c2ccccc12, which Potency is on record?
The Potency was inconclusive: 10 µM [inhibitor, single point].

For O=C1Nc2ccc(S(=O)(=O)N(CCO)CCO)c3cccc1c23, which Potency is on record?
Its Potency is “inactive”.

For CCN1CCN(c2cc(C)c3cc(NC(=S)NCCN(C)C)ccc3n2)CC1, which Potency is on record?
Its Potency is inconclusive: 5.62 µM [inhibitor, partial curve].

For COc1ccccc1N1CCN(C(=O)c2oc3ccc(F)cc3c2C)CC1, which Potency is on record?
Its Potency is inconclusive: 28.2 µM [inhibitor, single point].

Which Potency does the source give for COC(=O)c1ccccc1NC(=O)N1c2ccccc2Sc2ccccc21 here?
Its Potency is “inactive”.

For COC(=O)c1cc(NC(=O)CC2C(=O)NCCN2C(=O)c2ccc(F)cc2)cc(C(=O)OC)c1 (stereo unspecified), which Potency is on record?
The Potency was inconclusive: 0.501 µM [inhibitor, full curve, poor fit].

With COc1ccc(C[C@H](N)C(=O)N[C@H]2[C@@H](O)[C@H](n3cnc4c(N(C)C)ncnc43)O[C@@H]2CO)cc1 as the molecule, how does the Potency read?
Its Potency is “inactive”.

Which Potency does the source give for Cc1c(CN(C)C)c2c(n1Cc1ccccc1)C(=O)c1ccccc1-2 here?
Its Potency is inconclusive: 10 µM [inhibitor, single point].

With C/C(=N\NC(=S)NC1CCCCC1)c1cccc(C(F)(F)F)c1 as the molecule, how does the Potency read?
The Potency was inconclusive: 2.51 µM [inhibitor, full curve].

For CC(C)Cc1nc(N2CCN(C(=O)c3ccccc3)CC2)c(C#N)c2c1CCC2, which Potency is on record?
The Potency was “inactive”.

With COc1cc(NC(=O)[C@@H](NC(=O)N2CCn3c2nc2ccccc23)C(C)C)cc(OC)c1 as the molecule, how does the Potency read?
Its Potency is inconclusive: 15.8 µM [inhibitor, partial curve, poor fit].

With COc1ccc(SCCN2CC[C@@H](C(C)(C)C)CCC2=O)cc1 as the molecule, how does the Potency read?
The Potency was inconclusive: 0.501 µM [inhibitor, full curve, poor fit].

Which Potency does the source give for CC(=O)CC1(O)C(=O)Nc2ccccc21 (stereo unspecified) here?
The Potency was “inactive”.

With O=C(/C=C/c1ccc(OC(F)F)cc1)Nc1cccc(S(=O)(=O)NC2=NCCCCC2)c1 as the molecule, how does the Potency read?
The Potency was inconclusive: 10 µM [inhibitor, single point].

For COC(=O)C1=C(C(C)=O)C(c2ccc(C(=O)OC)cc2)n2nnnc2N1 (stereo unspecified), which Potency is on record?
Its Potency is inconclusive: 2.82 µM [inhibitor, full curve].

For Cc1ccc(-n2c(C)cc(/C([O-])=C(/C(=S)Nc3ccc(F)c(Cl)c3)[n+]3ccccc3)c2C)cc1, which Potency is on record?
Its Potency is inconclusive: 10 µM [inhibitor, partial curve, poor fit].

Which Potency does the source give for CCc1nc2ccc(C(=O)NCc3ccccc3OC)cn2c1N(C)Cc1ccc(OC)cc1 here?
Its Potency is inconclusive: 28.2 µM [inhibitor, single point].

With COc1ccc(-n2nc3c(N4CCC(C(=O)NCC(C)c5ccccc5)CC4)nnc(C)c3c2C)cc1 (stereo unspecified) as the molecule, how does the Potency read?
Its Potency is inconclusive: 28.2 µM [inhibitor, single point].

For COc1ccc(Cl)cc1N1CC(C(=O)Nc2nccs2)CC1=O (stereo unspecified), which Potency is on record?
The Potency was inconclusive: 10 µM [inhibitor, partial curve].

With CC(=O)/C(=N\Nc1ccc(Cl)cc1Cl)Sc1cccc2cccnc12 as the molecule, how does the Potency read?
Its Potency is inconclusive: 0.891 µM [inhibitor, full curve, poor fit].

Which Potency does the source give for O=C(Nc1cccc(-c2cccc(Cl)c2)c1)C1CCN(Cc2ccccn2)CC1 here?
The Potency was inconclusive: 28.2 µM [inhibitor, single point].

With COC(=O)c1nn(-c2ccccc2)c(Cl)c1/C=N/OCc1ccc(C)cc1 as the molecule, how does the Potency read?
The Potency was “inactive”.

For CC(C)(C)NC(=O)NC(=O)COc1ccc(Br)cc1Br, which Potency is on record?
Its Potency is “inactive”.

Which Potency does the source give for O=C(CSc1nnc(-c2ccncc2)n1Cc1ccco1)Nc1nc(-c2ccccc2)cs1 here?
Its Potency is inconclusive: 22.4 µM [inhibitor, partial curve, poor fit].
